# From PMC4336329 (PLoS ONE, 2015)
# The campaign covered roughly 310,000 compounds. About 14,000 (4.5%) showed an effect of 50% or more. Effects have a minus sign here. The list shows a part of the results.
# Molecular target: human ether-à-go-go-related gene (hERG) potassium channel (human, UniProt Q12809)
# Assay: primary screen, population patch clamp on CHO cells stably expressing hERG
# 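Note: peak tail current of the secondary pulse compared with the same well before compound.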
# Sequence of human ether-à-go-go-related gene (hERG) potassium channel (Q12809 whole entry, looked up): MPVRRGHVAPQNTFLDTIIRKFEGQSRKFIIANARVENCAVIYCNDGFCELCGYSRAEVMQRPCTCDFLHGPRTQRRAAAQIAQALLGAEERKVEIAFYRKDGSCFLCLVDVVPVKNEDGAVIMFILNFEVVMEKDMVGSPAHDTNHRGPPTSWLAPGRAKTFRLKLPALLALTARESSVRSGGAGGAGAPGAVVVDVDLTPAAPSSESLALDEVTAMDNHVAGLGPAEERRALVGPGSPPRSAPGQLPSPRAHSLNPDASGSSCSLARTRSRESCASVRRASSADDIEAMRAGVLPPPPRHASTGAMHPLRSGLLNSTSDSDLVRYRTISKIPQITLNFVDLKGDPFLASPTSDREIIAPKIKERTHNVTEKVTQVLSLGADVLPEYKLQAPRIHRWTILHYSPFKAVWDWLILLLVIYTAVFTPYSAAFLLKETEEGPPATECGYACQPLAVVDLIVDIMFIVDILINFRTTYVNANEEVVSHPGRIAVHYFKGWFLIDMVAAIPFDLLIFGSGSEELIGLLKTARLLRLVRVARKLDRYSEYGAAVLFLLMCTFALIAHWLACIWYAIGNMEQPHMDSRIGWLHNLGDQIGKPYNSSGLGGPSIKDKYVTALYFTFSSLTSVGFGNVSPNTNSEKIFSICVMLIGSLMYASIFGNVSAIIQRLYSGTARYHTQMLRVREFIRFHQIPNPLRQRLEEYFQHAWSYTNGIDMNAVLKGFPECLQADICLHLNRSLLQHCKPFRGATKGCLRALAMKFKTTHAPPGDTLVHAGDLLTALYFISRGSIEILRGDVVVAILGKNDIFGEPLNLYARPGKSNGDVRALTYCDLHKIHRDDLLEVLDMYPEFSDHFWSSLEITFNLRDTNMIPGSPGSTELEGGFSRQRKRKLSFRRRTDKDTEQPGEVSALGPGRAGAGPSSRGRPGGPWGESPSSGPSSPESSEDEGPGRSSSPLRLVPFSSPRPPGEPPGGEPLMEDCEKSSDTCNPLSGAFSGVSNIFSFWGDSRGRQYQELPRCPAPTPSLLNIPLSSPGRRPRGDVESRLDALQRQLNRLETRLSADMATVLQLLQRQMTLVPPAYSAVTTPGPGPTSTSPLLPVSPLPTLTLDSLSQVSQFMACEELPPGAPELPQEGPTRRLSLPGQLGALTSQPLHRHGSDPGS
row,Structure (SMILES),"hERG current change (%, negative = inhibition) at 10uM"
1,Cc1ccc(Nc2ncnc3sc(C)c(C)c23)cc1,3.98%
2,O=C(NC1CCCC1)c1noc2c1CCCCC2,9.09%
3,O=C(O)c1ccc2c(=O)n3c(nc2c1)/C(=C/c1cccc(Cl)c1Cl)CC3,14.1%
4,O=C(Nc1ccc2c(c1)OCO2)c1ccc(COc2ccc3c(c2)CCC3)o1,5.22%
5,C/C(=N/NC(=O)c1cnccn1)c1cccs1,-0.105%
6,Cc1noc(C)c1C(=O)Nc1ccccc1C(=O)NCCc1ccccc1,8.93%
7,O=C(COc1ccc(Cl)cc1)Nc1nc(-c2ccc(S(=O)(=O)N3CCOCC3)cc2)cs1,7.29%
8,Cc1ccc(C)c(OCCC(=O)OCC(=O)c2ccc3c(c2)NC(=O)CO3)c1,-3.46%
9,CC(=O)c1c(C)[nH]c(C(=O)OCC(=O)N2c3ccccc3NC(=O)C2(C)C)c1C,4.95%
10,C/C(=N\O)c1cc(Cl)cc(Cl)c1O,-11%
11,O=C(CN1CCN(c2ccccc2)CC1)N1CCc2ccccc21,-18.2%
12,COc1ccc(/C=N\Nc2ccccc2[N+](=O)[O-])c(C(=O)O)c1OC,13.5%
13,Nc1c(Cl)cc(Cl)cc1C(=O)OCC(=O)NC1CC1,-16.6%
14,Cc1cc(=O)oc2c3c(cc(OCC(=O)NC(Cc4ccc(Cl)cc4)C(=O)O)c12)OC(C)(C)CC3 (stereo not shown),15.7%
15,CCOC(=O)c1ccc(N/C(=N\S(=O)(=O)c2ccc(F)cc2F)c2ccccc2)cc1,-2.73%
16,O=C(O)/C=C/c1cn(Cc2ccccc2)nc1-c1ccc(Cl)cc1,21.7%
17,O=C(NCCN1CCOCC1)C(=O)NCC1OCCN1S(=O)(=O)c1ccc(F)cc1 (stereo not shown),7.19%
18,CCOC(=O)c1ccc(-n2c(C)ccc2C)cc1,6.3%
19,COCCNC(=S)N(CCO)Cc1cc2cc3c(cc2[nH]c1=O)OCCO3,5.51%
20,CCOc1ccc(NC(=O)C2CCCN2C(=O)OCc2ccccc2)cc1 (stereo not shown),-19.9%
21,CCN(CC)C(C(=O)NC1CCCCC1)c1ccc(C)cc1 (stereo not shown),-0.937%
22,COc1ccc(S(=O)(=O)Cc2ccc(C(=O)N3CCN(c4cccc(C)c4C)CC3)o2)cc1,-30.6%
23,CC1CN(C(=O)COC(=O)c2cc(=O)c3ccccc3o2)CC(C)O1 (stereo not shown),21.3%
24,Cc1ccc(-n2nc3cc(C)c(NC(=S)NC(=O)/C=C/c4ccco4)cc3n2)cc1,19.3%
25,c1ccc2c(c1)OCCOCCOCCOCCOCCOc1ccccc1OCCOCCOCCO2,-59.2%
26,COc1ccnc(Oc2ccc(F)cc2)c1C(=O)N/C=N/OCc1cccc(F)c1,-26.1%
27,Cc1cc(NC(=O)c2ccc(C#N)cc2)n(-c2ccccn2)n1,-2.63%
28,CSc1cccc(N2CC(C(=O)NCCC3=CCCCC3)CC2=O)c1 (stereo not shown),14.1%

row,Structure (SMILES),"hERG current change (%, negative = inhibition) at 10uM"
1,Cc1ccc(-c2nnc(C)c(N3CC(C)OC(C)C3)n2)cc1 (stereo not shown),-3.31%
2,C[C@]12CCC(=O)C=C1CC[C@@H]1[C@@H]2CC[C@@]2(C)[C@H]1CC[C@@]21CCC(=O)O1,-18.4%
3,CCN(CC)c1ccc(NC(=O)CSc2nc3ccccc3c(=O)[nH]2)cc1,2.45%
4,COC(=O)c1sc(S(=O)(=O)N2CC[NH+](CCO)CC2)c(C(=O)OC)c1C.[Cl-],7.93%
5,Cc1ccc(C)c(OCCC(=O)OCC(=O)NCCNC(=O)COC(=O)CCOc2cc(C)ccc2C)c1,4.21%
6,CCOC(=O)c1c(N)nn(C(=O)c2ccccc2F)c1-c1ccc(OC)cc1,3.53%
7,COCCSc1nnc(NC(=O)COC)s1,11.1%
8,Cc1ccc(CSc2nc3c(c(=O)[nH]c(=O)n3C)n2CCC(C)C)cc1,6.82%
9,CS(=O)(=O)N1CCc2cc(S(=O)(=O)Nc3ccc4c(c3)OCCO4)ccc21,-12.7%
10,CC(C)(C)c1ccccc1NC(=O)c1ccco1,5.62%
11,CC1CCc2sc(C(=O)NNC(=S)NCC3CCCO3)cc2C1 (stereo not shown),-5.76%
12,CCOc1ccc(/C(C)=N/NC(=O)Cn2nc([N+](=O)[O-])cc2C)cc1,4.76%
13,COc1cccc(CNCCc2c[nH]c3ccccc23)c1OC.Cl,-11.1%
14,COc1ccccc1C(=O)N1CCN(S(=O)(=O)c2ccccc2)CC1,-3.1%
15,CCOC(=O)COc1ccc2c(c1)C(=O)CC(C)(c1cccnc1)O2 (stereo not shown),7.09%
16,O=C1C(CCS(=O)c2ccccc2)C(=O)N(c2ccccc2)N1c1ccccc1 (stereo not shown),20.8%
17,C#CCn1c(-c2cccs2)nc2ccccc21,-0.381%
18,CC(C)(C)OC(=O)NN=C(c1ccc(O)cc1)c1ccc(O)cc1,22.7%
19,COc1ccc(OC)c(NC(=O)c2ccccc2NS(=O)(=O)c2cccc3cccnc23)c1,-0.0217%
20,CCCCN(C(=O)CNC(=O)c1ccco1)C(C(=O)NC1CCCC1)c1ccc(OC)cc1 (stereo not shown),-20.1%
21,COC(=O)c1sccc1NC(=O)Cn1cnc2c1c(=O)n(C)c(=O)n2C,0.488%
22,O=S(=O)(c1ccc(Oc2ccc(S(=O)(=O)N3CCOCC3)cc2)cc1)N1CCOCC1,9.29%
23,CS(=O)(=O)N1CCN(c2ccc(NC(=O)c3ccccc3)cc2)CC1,1.23%
24,O=C(CN1CCN(Cc2ccccc2Cl)C1=O)NC1CCCCCCC1,-17.1%
25,Cn1c(C(=O)N[C@@H](Cc2ccccc2)C(=O)O)cc2cc(F)ccc21,25.9%
26,Cl.Cn1c(=O)c2c(ncn2CCCC(=N)N2CCOCC2)n(C)c1=O,16.4%
27,Cc1ccccc1OCC(=O)NCC(=O)N/N=C/c1cccc([N+](=O)[O-])c1,16.5%
